{
  "source": "PubChem BioAssay AID489043",
  "about": "(National Center for Advancing Translational Sciences (NCATS), 2010)",
  "note": "The shares of active, inactive and inconclusive entries below differ from those in the screen. Potencies beside an inconclusive call are fits to weak or partial responses and may not hold up. Active and inactive are the calls of the source. The call rests on the fitted dose curve; in most records, active means well fitted activation curve with a large enough effect; inconclusive means small, poorly fitted or top-dose-only effect; inactive means flat fitted curve, though single readings scatter. Potency means the concentration at half of the fitted maximal effect; tags describe the fitted curve by direction and shape.",
  "data": [
    {"molecular_target": "Relaxin receptor 2 (Homo sapiens) (UniProt Q8WXD0)", "sequence (Q8WXD0 whole entry, looked up)": "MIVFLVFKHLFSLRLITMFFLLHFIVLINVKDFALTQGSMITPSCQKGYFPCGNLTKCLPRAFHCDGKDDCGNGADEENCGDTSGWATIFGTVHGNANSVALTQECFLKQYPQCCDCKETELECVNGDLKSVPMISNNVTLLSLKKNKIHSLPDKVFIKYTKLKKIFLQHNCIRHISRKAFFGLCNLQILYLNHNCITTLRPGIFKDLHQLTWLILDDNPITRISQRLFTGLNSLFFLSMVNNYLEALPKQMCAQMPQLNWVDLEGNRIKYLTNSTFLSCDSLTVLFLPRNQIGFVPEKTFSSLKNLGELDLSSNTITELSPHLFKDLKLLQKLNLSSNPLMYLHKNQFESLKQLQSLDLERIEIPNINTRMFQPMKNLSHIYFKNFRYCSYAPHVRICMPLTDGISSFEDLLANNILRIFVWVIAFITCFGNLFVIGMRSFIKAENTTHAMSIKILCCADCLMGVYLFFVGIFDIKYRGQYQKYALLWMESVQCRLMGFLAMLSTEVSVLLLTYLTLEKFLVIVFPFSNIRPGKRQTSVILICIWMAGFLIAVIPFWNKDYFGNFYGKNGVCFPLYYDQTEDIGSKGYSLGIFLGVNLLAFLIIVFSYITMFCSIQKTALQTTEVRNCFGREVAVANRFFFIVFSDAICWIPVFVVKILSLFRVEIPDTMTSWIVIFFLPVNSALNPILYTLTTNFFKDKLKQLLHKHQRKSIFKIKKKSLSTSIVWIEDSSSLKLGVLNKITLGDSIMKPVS", "assay": "qHTS Assay for Agonists of the Relaxin Receptor RXFP1: RXFP2 Hit Validation; further: nearly all actives have a fitted effect of over 65% in size", "details": "HEK293 RXFP2 cAMP TR-FRET, 30 min; series mostly up to 115 µM; activation: at the top concentration", "how_it_was_run": "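Selectivity counter-assay for cAMP accumulation: RXFP2-HEK293 cells given compounds with Ro 20174 for 30 min at 37C, then lysed for TR-FRET cAMP detection. Data scaled to 29 nM porcine relaxin (100%); Hill-equation EC50.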", "values": [
      {"smiles": "Cc1ccccc1NC(=O)c1ccccc1NC(=O)c1ccco1", "activation": "inactive: -2.61% [at 125 µM]"},
      {"smiles": "Cc1ccc2cc(CN(C(=O)c3cccs3)c3ccccc3)c(=O)[nH]c2c1", "activation": "inactive: 5.18%"},
      {"smiles": "COC(=O)c1nc2ccc(N3CCOCC3)cc2c(C)c1C(=O)OC", "Potency": "active: 38.9 µM"},
      {"smiles": "O=C1CN(c2nc3ccccc3n3cnnc23)CC(=O)N1CCc1ccccc1", "activation": "inactive: 9.22% [at 44.7 µM]"},
      {"smiles": "O=C(Nc1ccccc1C(=O)N1CCCCC1)c1ccco1", "activation": "inactive: -0.174% [at 125 µM]"},
      {"smiles": "O=C(CCc1nnc2ccc(N3CCC4(CC3)OCCO4)nn12)NCc1ccccc1Cl", "Potency": "inconclusive: 43.6 µM [activator, partial curve]"},
      {"smiles": "CC1(C)CC(=O)C2=C(C1)NC1=C(C(=O)c3ccccc31)C2c1cc([N+](=O)[O-])ccc1O", "note": "(stereo not drawn)", "Potency": "inconclusive: 24.5 µM [activator, partial curve]"},
      {"smiles": "C=CCOc1c(Cl)cc(CNc2ccc(N(C)C)cc2)cc1OC", "activation": "inactive: 6.02%"},
      {"smiles": "CCC(=O)Nc1cccc(NC(=O)CSc2nc3c(c(=O)n(C)c(=O)n3C)n2C)c1", "Potency": "inconclusive: 34.6 µM [activator, partial curve]"},
      {"smiles": "CC(C)OC(=O)CNc1n[nH]c(=S)[nH]c1=O", "Potency": "inconclusive: 12.3 µM [activator, partial curve]"},
      {"smiles": "O=C(Nc1ccccc1C(=O)N1CCOCC1)c1ccco1", "activation": "inactive: 0.881% [at 125 µM]"},
      {"smiles": "CCOC(=O)CCCCC(=O)c1[nH]c(=O)[nH]c1CSc1nnc2c3cc(Br)ccc3n(C)c2n1", "Potency": "inconclusive: 12.3 µM [activator, partial curve]"},
      {"smiles": "CC1(C)Cc2c(sc3c2c2ncnn2c2nnc(SCC(=O)NCc4ccco4)n32)CO1", "Potency": "active: 7.76 µM"}
    ]}
  ]
}
